We go through four molecules from publication PMC13254600.

Sequences of proteins named here, by UniProt entry; tags and fusion partners are left off.
UniProt P38811: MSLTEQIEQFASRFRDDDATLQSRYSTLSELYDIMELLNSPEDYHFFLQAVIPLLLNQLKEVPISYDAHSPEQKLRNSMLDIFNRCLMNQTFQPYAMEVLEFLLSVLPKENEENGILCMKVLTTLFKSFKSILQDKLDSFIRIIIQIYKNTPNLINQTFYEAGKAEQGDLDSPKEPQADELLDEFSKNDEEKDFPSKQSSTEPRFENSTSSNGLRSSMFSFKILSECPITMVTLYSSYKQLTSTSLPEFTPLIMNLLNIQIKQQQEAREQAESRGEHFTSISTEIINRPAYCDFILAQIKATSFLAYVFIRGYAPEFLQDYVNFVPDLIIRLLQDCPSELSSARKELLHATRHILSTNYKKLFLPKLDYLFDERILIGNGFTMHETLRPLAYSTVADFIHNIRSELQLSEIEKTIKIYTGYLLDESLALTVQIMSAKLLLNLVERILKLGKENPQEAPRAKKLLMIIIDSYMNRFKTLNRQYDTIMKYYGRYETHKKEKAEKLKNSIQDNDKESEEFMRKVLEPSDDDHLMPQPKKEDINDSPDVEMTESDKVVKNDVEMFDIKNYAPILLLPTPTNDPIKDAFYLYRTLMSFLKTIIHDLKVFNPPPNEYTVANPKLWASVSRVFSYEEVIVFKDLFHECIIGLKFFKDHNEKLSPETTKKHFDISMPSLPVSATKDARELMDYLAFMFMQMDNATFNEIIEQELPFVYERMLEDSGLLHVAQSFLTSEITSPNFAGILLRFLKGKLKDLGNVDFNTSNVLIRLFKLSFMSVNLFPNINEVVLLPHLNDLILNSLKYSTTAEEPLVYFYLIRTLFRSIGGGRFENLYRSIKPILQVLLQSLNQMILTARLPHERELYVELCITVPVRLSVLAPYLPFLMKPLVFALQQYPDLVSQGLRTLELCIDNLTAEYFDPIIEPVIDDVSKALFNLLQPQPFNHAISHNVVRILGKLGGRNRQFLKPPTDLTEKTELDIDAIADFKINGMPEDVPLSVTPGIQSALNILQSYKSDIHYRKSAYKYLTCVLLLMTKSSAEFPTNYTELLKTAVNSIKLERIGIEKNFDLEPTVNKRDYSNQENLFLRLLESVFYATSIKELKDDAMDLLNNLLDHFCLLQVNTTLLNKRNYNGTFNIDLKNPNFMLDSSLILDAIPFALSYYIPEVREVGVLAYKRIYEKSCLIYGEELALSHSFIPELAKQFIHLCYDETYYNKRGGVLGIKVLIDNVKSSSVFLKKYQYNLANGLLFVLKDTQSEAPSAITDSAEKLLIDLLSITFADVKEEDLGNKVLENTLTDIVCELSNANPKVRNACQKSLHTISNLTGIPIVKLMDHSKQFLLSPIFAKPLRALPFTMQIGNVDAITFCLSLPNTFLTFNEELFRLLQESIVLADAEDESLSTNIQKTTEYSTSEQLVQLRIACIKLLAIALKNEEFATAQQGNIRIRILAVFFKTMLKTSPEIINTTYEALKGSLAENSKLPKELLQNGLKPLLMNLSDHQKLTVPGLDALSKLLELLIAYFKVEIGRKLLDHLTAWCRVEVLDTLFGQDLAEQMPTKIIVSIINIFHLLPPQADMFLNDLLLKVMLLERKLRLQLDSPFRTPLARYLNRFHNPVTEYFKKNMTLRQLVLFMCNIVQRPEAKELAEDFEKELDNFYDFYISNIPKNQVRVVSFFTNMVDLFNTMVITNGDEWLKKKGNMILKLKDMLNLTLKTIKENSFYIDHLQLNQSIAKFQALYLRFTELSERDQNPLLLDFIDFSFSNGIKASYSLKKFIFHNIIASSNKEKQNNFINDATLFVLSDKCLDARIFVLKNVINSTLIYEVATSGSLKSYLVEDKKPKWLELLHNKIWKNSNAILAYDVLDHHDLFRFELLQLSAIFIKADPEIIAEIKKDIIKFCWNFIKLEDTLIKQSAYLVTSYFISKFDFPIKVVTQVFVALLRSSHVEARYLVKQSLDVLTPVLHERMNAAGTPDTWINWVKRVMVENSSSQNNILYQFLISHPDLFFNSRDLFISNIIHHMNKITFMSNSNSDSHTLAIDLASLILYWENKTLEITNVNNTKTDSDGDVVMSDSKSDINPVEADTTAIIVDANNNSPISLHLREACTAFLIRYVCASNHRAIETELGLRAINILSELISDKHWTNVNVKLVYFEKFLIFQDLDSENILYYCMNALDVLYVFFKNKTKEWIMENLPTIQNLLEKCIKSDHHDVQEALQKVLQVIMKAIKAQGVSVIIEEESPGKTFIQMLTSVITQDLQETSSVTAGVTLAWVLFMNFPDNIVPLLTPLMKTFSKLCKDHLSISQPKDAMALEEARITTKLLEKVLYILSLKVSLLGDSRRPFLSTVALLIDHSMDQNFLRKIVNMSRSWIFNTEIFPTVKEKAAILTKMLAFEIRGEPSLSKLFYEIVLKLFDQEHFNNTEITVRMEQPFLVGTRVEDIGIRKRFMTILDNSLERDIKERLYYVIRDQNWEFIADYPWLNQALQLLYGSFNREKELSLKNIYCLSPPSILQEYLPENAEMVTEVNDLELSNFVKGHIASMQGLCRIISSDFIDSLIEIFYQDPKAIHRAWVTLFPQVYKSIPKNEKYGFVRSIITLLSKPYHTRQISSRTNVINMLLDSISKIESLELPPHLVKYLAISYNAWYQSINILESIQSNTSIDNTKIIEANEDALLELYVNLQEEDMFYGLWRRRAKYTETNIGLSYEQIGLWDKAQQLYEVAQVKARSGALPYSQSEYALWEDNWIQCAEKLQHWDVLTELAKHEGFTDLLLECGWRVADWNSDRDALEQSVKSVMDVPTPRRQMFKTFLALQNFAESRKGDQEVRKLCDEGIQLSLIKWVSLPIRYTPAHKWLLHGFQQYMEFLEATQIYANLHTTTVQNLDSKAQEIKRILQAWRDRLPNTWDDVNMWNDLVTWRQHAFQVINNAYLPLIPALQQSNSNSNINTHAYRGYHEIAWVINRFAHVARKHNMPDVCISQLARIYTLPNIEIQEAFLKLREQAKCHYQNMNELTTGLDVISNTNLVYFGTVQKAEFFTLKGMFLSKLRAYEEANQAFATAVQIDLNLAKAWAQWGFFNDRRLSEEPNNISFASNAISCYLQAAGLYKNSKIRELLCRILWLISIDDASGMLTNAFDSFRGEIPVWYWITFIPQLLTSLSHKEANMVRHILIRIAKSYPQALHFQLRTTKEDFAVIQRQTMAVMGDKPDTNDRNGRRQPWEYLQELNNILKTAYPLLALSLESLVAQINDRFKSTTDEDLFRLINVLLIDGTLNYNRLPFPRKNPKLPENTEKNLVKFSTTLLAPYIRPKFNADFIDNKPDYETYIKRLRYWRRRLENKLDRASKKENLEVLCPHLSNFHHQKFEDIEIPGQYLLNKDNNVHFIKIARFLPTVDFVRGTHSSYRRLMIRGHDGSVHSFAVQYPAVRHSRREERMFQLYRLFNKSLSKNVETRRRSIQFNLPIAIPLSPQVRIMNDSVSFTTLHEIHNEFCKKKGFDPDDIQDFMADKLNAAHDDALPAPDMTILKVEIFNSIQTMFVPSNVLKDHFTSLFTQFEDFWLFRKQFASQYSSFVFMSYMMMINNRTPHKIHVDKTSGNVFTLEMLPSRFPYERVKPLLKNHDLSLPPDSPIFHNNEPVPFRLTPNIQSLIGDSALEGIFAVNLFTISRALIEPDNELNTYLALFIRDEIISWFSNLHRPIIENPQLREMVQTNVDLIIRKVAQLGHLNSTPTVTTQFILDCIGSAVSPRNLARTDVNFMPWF

Assay [1] has as its target T1, Sfp1-TAP fusion protein (S. cerevisiae (endogenous locus in yeast cells)) (UniProt P32432).
T1 sequence: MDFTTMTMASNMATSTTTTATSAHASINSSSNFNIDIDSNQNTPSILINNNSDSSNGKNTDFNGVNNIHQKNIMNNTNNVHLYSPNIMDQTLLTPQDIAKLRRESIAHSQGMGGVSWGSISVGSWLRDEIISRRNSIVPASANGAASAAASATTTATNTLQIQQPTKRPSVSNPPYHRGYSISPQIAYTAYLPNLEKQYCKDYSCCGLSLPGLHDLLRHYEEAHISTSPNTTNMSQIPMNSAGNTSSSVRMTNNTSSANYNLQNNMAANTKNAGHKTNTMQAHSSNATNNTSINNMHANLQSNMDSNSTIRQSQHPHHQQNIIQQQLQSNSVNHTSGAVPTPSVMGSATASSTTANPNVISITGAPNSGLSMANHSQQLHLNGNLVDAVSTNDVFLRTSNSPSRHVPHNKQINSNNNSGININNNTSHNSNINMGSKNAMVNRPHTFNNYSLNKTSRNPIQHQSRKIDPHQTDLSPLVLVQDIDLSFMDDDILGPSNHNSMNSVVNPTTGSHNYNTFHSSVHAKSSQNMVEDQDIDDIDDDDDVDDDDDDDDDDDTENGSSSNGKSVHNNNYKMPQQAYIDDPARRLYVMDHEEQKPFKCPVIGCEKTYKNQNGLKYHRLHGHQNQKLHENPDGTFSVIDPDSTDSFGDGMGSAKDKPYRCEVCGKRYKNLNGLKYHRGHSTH
In words: co-IP; TAP affinity purification of the tagged bait (Sfp1-TAP or Epl1-TAP) from yeast cells, co-purifying proteins detected by Western blot; mock purification from an untagged strain as negative control.

Assay [2] has as its target T1, Sfp1-TAP fusion protein (S. cerevisiae (endogenous locus in yeast cells)). The experiment in a line: condition: only cells treated with rapamycin (200 ng/ml) for 2 h; co-IP; TAP affinity purification of Sfp1-TAP from yeast cells treated with rapamycin (200 ng/ml) for 2 h to inhibit the TOR kinase, Western blot of Esa1.

These are yes or no findings as the source states them, for the method shown. Binding seen in cells or lysates may run through a third protein. Some results given as binding are weak or reduced against the parent protein; the word gives no strength. Tags and fused reporters may be left off the sequences shown.

Consider Tra1 (from UniProt P38811 1-3744), for which the binding entry in assay [1] is given as “binds”.

B1: Eaf1 (protein, UniProt Q06337 1-982)
chain: MSSRPSSAVPNSASLSEDQSSDRSKFPKADDLIDERDRKLTELYCVSRLNQLLELTDENKLRKEIDAFLKKNDIRRGIRFDEASLPKLLHTAATPITKKKLKDVNLINVPNQRLSDSKMSRELPENSENVSVKSESHFVPSHDNSIRENMMDSLRPAEKTGGMWNKRPLESTMGGEEERHEKRQKMQSQSLESSNNSEMASLPISPRPPVPNALAHYTYYENIEYPPADPTEVQPAVKFKDPLIKNIMAKEIDTSDHYNENNVDALETVFLLMNDYIPSKIPQALPLAELKYMSQTLPLINLIPRAHKALTTNIINNALNEARITVVGSRIEELRRLGLWSLRQPKRFIDPWKQHNTHQNILLEEAKWMQADFKEGHKYKVAICTAMAQAIKDYWTYGEICCVKRKTLLPGKENKLSDDGRISEKSGRPSDTSRNDSDISIAGKDDIGIIANVDDITEKESAAANDNDENGKNEAGAKSDFDFADGLLSQEGAHDQIISSIDTKLLLKKPSSSSEVVLIQHEVAASSALIETEESKKELAPPFKLSIFVDELNTFEKTLIQDLPLYNGINEERPKKDDSLPFIPISKSVVSLDDNGFYKLLERQLIDEEPSISQLSKRRGMFYGNRRNHYLRPPAVPSLRYLQNRTPTIWLSEDDQELVKNINTYGYNWELISAHMTHRLTYSYLSNIERRTPWQCFERFVQLNERFNFSDLKGPRAHSAQQWLIEAHKFQQRQNRRISPLGVNTESIQRGHRRLRWASMFEAIRKCMKKRENTPRPNPTQPRKPLDCKNMKVPTPAEMSLLKAQRDEALRRDIQLRRTVKNRLQQRQQQSQQAHSSRAQSPIPSNGKSSSNLARNGQASAPRPNQKQYTEQDIIESYSRKLLEQKPDIGPEMALKAAKNYYRTLREQQQQLKQHQIQQQRQQLQEESSHVQQLQQLQPGSQAPPPKSSPSQSSLSNISNINSAPRIKSPTPQEILQRFQKQ
For B1, in assay [1], the binding result is reported as “binds”.

B2: Arp4 (protein, UniProt P80428 1-489)
chain: MSNAALQVYGGDEVSAVVIDPGSYTTNIGYSGSDFPQSILPSVYGKYTADEGNKKIFSEQSIGIPRKDYELKPIIENGLVIDWDTAQEQWQWALQNELYLNSNSGIPALLTEPVWNSTENRKKSLEVLLEGMQFEACYLAPTSTCVSFAAGRPNCLVVDIGHDTCSVSPIVDGMTLSKSTRRNFIAGKFINHLIKKALEPKEIIPLFAIKQRKPEFIKKTFDYEVDKSLYDYANNRGFFQECKETLCHICPTKTLEETKTELSSTAKRSIESPWNEEIVFDNETRYGFAEELFLPKEDDIPANWPRSNSGVVKTWRNDYVPLKRTKPSGVNKSDKKVTPTEEKEQEAVSKSTSPAANSADTPNETGKRPLEEEKPPKENNELIGLADLVYSSIMSSDVDLRATLAHNVVLTGGTSSIPGLSDRLMTELNKILPSLKFRILTTGHTIERQYQSWLGGSILTSLGTFHQLWVGKKEYEEVGVERLLNDRFR
As to B2, the binding result in assay [1] is reported as “binds”.

B3: Esa1 (enzyme, UniProt Q08649 1-445)
chain: MSHDGKEEPGIAKKINSVDDIIIKCQCWVQKNDEERLAEILSINTRKAPPKFYVHYVNYNKRLDEWITTDRINLDKEVLYPKLKATDEDNKKQKKKKATNTSETPQDSLQDGVDGFSRENTDVMDLDNLNVQGIKDENISHEDEIKKLRTSGSMTQNPHEVARVRNLNRIIMGKYEIEPWYFSPYPIELTDEDFIYIDDFTLQYFGSKKQYERYRKKCTLRHPPGNEIYRDDYVSFFEIDGRKQRTWCRNLCLLSKLFLDHKTLYYDVDPFLFYCMTRRDELGHHLVGYFSKEKESADGYNVACILTLPQYQRMGYGKLLIEFSYELSKKENKVGSPEKPLSDLGLLSYRAYWSDTLITLLVEHQKEITIDEISSMTSMTTTDILHTAKTLNILRYYKGQHIIFLNEDILDRYNRLKAKKRRTIDPNRLIWKPPVFTASQLRFAW
B3: the binding result in assay [1] is on record as “binds”; in assay [2] it was “no binding”.
